Here are results for 73 sequences from publication PMC10726135.

This is one part of the list. At the low end of the ranking the order means little. Measured with an extract: partners may take part in the binding.

For the test, the target named is T1, HNF4alpha8 (COS-7 nuclear extract) (UniProt P41235-5).
T1 sequence: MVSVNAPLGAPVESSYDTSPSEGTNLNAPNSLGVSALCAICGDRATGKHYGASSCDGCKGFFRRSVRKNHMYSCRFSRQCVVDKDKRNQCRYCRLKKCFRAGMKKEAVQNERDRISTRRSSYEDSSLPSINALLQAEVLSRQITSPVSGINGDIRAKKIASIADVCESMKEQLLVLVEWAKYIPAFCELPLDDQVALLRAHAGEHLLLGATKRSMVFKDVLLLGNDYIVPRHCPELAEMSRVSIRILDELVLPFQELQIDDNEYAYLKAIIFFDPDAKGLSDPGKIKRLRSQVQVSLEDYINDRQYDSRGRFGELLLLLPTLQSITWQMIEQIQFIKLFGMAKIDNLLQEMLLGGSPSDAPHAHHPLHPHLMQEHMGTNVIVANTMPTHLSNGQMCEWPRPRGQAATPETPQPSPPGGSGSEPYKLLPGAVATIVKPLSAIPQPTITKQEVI
Description: protein-binding microarray. To be noted: COS-7 nuclear extract on double-stranded Agilent 4x180k PBM; binding buffer, salt, pH and temperature not given; high values mean tight binding; double strand, one strand shown; sequences stand for … in …GCCTAGGGAGATTAGAGTATCGGTCGA
With ACAGAAGAAGGAAAAGGCCTGACCTTTGCC, the binding signal (log2 normalized intensity) was 5.58.

On to TGGTGTGGACAGCAGACAACTTTTCCTCTA, for which the binding signal (log2 normalized intensity) was -1.35. The same measure for AGTCCAAAGCTCAGATTGCCTAAAGGGGAT: -1.36; for CATCTTTGAGCTGGATGACCTTTGTCCTGG: 9.19. For ATGGTTAGCACTCTGGACTCTGAATCCAGC, the binding signal (log2 normalized intensity) came to 3.4. As to ACGCAGTCCCGCGTGGCCTTGTGGGAGCTG, the binding signal (log2 normalized intensity) was -1.38. The same measure for AGTGGCTTTGTTGATAACAAGTAAAATGAG: -0.132; for TGTGTCTTTATAACAGACTGTAGGCTTGGA: 1.52; for TTTAAAGTGTAATTAAGGAAGATGGTGCAA: -1.29.

On to AGGCTGAAGTGAAGTTACAAAGGTCACGCT, for which the binding signal (log2 normalized intensity) was 5.72. On to AAGCAGGACTTAAACACCAGTACTCTTTAA, for which the binding signal (log2 normalized intensity) is -1.34.

Regarding TTTGGAGTTTGACCTGGAGCCAGGGCCTTT, the binding signal (log2 normalized intensity) is 3.92. To TAACAAGGCAAACTTTATCAAGACTGCAGC belongs -1.38; to TACTGACTGAGAAACCAAGATCCTAGTCTT, -1.32.

Consider TGGTGCAAAGGTCAGGACAAGGCTCTGGTG, for which the binding signal (log2 normalized intensity) came out at 4.55.

On to TATCAGACCAGCATTCTTTCTGCTGCAATT, for which the binding signal (log2 normalized intensity) was -1.04. To CTGTTTTCAAACACAGGATTGAACCTCTGG belongs 3.05. As for GGGTGGAAATCATCTCCATGCCGACTCCGA, the binding signal (log2 normalized intensity) was -1.26. Turning to CAGACACACAGTCCACAGGCTATAGGGAAG, the binding signal (log2 normalized intensity) is -1.35. To GAGCATACATGCAGCTGAGAAAGAGAAAAT belongs -1.28; to AGAATATTAGATGATAAGGGTGAAAAGATA, -1.2; to GCTGGGTCAAAGTGTATGCATATTTTAAGT, 2.27. GTGCAGCTGACCTACATTCCACCCTCATTT: the binding signal (log2 normalized intensity) was 0.796. Regarding ACGTCGAGCAGGCCCCGTCCCCGCCCCTTG, the binding signal (log2 normalized intensity) came to 5.02. The same measure for AGGCAAGAAGTATGACAACAAAGCATTATC: -1.49. In the case of TGACTTTACCTGAAATGAGACCAAAGTATT, the binding signal (log2 normalized intensity) was 0.577. To ACTCTGAAGGAATGTAAACTCCAAGGAGCA belongs -1.44; to ACTGCGAAAGATAAAAGGCCATAGGGAAAG, -1.22; to CCCCTCTTTATCTCCTGGAATCCAAAGTAT, 2.05.

For the sequence CCAGTGGTATGCCTCTGGGTGTCAGGGTTC, the binding signal (log2 normalized intensity) is 2.65. To TTGAGTCCATCCCATCTTCCAGAAATGCCA belongs 0.273. The same measure for CGTGAGAAGAGGACTTTTTTTTGCCTAACT: -1.4; for TGTGAGGATTGATTAGATAACATCTGGACT: 2.52.

For the sequence AACCATACCTGGACAGCCTTTTTCAAGCAA, the binding signal (log2 normalized intensity) was -1.21. Turning to CAGTTTCTTTAAGACAAGTGTCCCTCAAAC, the binding signal (log2 normalized intensity) was found to be 0.83.

As for TGGTGCCCTCTGAGTGTTTGACCTTTCACC, the binding signal (log2 normalized intensity) was found to be 8.17. The same measure for GGGCGGCCGGCGGAGCGCCGAGCAGGCACC: -1.36. With AAATATTGTCAGTGAGGAATGTGCAAACGG, the binding signal (log2 normalized intensity) is 0.32. To TCTTGGCCTCCCCCTTCTGAGTCTCCAATG belongs 2.82. Regarding GACCCCAGGGCAAAGTGCATTGGAGGCCAG, the binding signal (log2 normalized intensity) turned out to be 4.14. Consider GGAAACAATGGCCTTGCTGCGGATCAAAGG, for which the binding signal (log2 normalized intensity) was 2.54.

For CTCAATGCAACCAGTTGGTGGGTCAAGGTG, the binding signal (log2 normalized intensity) stood at 1.58. To AGAGAAAGGACCAGTTGAGTGCAAAGTCCC belongs 3.85; to AACAGACAAAATTAAGTGATTTGCCCAATA, -1.13; to GGATTCCTGATGCGTTCAAGGAACAGCCAG, -1.34.

As to TTGAGTCAACACACCTGTGGGTAATTAATC, the binding signal (log2 normalized intensity) came to 0.464. Consider GCCAGGCAGAGCAGGTTCTCAGGCCAATCA, for which the binding signal (log2 normalized intensity) is -1.33. Consider GATGACCCCTCTCTACTGGTAAGCAAATAT, for which the binding signal (log2 normalized intensity) was 2.09. Consider GGATATTTGATCAAAGGTCAGCTCTCCTTT, for which the binding signal (log2 normalized intensity) stood at 5.11. On to CTAGGTAAGCCCACTAGGGAATGAAGCTAA, for which the binding signal (log2 normalized intensity) is -1.2.

With CTTAGAATCGAATTGTGAAACTCAGAATCA, the binding signal (log2 normalized intensity) was -0.796. The same measure for TGCCATGGGCCTGGCTGAGCCTGGGCCGCC: -1.38; for CCATTGCTTTCTTCCAAGGCTGCAAGCAAA: -1.37; for AGAATTCCCATCCCACTAGGTGGCGCTGTT: -1.29. For ACCTTTGCCCTGTTGTCTTTGCCCAAACCA, the binding signal (log2 normalized intensity) amounted to 2.89. GATTCTAGGGCCCATGCCCTTAGCCACTGC: the binding signal (log2 normalized intensity) came to 0.179. As for CCCTTTGTACCTGGGGCAAACATCAATTTA, the binding signal (log2 normalized intensity) came to 1.29. CATTTTTTTCCACCCTCCCCTCCCCCTCCT: the binding signal (log2 normalized intensity) came out at 6.32. To CTCACGGACCCTGTTACCACACCACAGCGG belongs -1.29; to GTTAGGGTGAAGTAAAGTTATACTTCTATG, 0.508. To GAAGCTGCACACATGTCAAAGGTCAAAGGG belongs 6.06; to GCCTCCATTAATTAACCTTTGAGCTGGGTG, 5.22. As to TCTAAGACATAACACAGGTGACCTTTGCTC, the binding signal (log2 normalized intensity) was 8.96. The same measure for ATGCTTCCCAGAAAGAATGAGCGGGAACCT: -1.27.

Consider ACGAATAATCATATCTGCCTCAGTAGTAGT, for which the binding signal (log2 normalized intensity) turned out to be 1.01.

Regarding TCAAATTCCTGGGCTCAAACAATCCTCCCA, the binding signal (log2 normalized intensity) is -1.25. The same measure for GGGGGCGAGCATGGCCGCTCCGCGAGGTGA: -1.36; for ACCATTGCTTCAGCAAAACCAGTTTGTCTG: -1.33. In the case of CTCTGTTACACAAAATCGCCACTACAAAGG, the binding signal (log2 normalized intensity) was -1.16.

As to GAGCACCTGGATAAGCCAGATAATTTGTGC, the binding signal (log2 normalized intensity) was -1.05. As to AGTGAGTGAAACATCCCACTCAAAGGTCAG, the binding signal (log2 normalized intensity) was found to be 4.26.

In the case of TGCTTATCTTCTCTTTTACTGTACTTCTTT, the binding signal (log2 normalized intensity) amounted to 1.68. In the case of ATGAGGGCAGGATGCATGCACTTCATTGTG, the binding signal (log2 normalized intensity) was determined as 0.337.
